For 172 sequences, binding signal results are on record in paper PMC5836133.

This is one part of the list. At the low end of the ranking the order means little.

The test system of this assay is T1, GST-NbGlk1(82-244).
T1 sequence: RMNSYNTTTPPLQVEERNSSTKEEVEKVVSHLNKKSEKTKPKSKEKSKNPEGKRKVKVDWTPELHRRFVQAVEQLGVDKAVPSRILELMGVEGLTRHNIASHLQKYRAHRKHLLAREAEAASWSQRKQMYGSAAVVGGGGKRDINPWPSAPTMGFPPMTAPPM
The assay is described as follows: protein-binding microarray.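 Note: rank-based score ranging −0.5 to +0.5 with E above 0.45 taken as significant binding.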 Particulars: NbGlk1 is a Golden2-like transcription factor of Nicotiana benthamiana; high values mean tight binding; most listed sequences are background and not binding sites; double strand, one strand shown.
As for ACTCGGAG, the binding signal is -0.178 E-score.

AAGTAACG came in with a binding signal of 0.0118 E-score.

ATTAAGCG showed a binding signal of 0.0263 E-score.

As to ATATCTAA, the binding signal came out at 0.417 E-score.

Consider CAATAATG, for which the binding signal turned out to be 0.0949 E-score.

On to ATTGTGAG, for which the binding signal was 0.163 E-score.

Consider ACGGGGCG, for which the binding signal was -0.146 E-score.

ACCCTGCT: the binding signal is -0.216 E-score.

For the sequence AGGCAAAA, the binding signal was -0.0744 E-score.

On to ACCACCAG, for which the binding signal is -0.123 E-score.

For ACGGCAGT, the binding signal was -0.229 E-score.

In the case of CACATAAG, the binding signal was -0.0043 E-score.

For the sequence AAAACTCA, the binding signal was -0.0461 E-score.

In the case of AGGGAGCC, the binding signal is -0.262 E-score.

For the sequence AAGCATGT, the binding signal was -0.0505 E-score.

In the case of AAAGAAGA, the binding signal was -0.0524 E-score.

As to CAACGCGA, the binding signal was -0.00243 E-score.

The sequence AGAATCAC showed a binding signal of 0.373 E-score.

On to ACTGAGTA, for which the binding signal was -0.0132 E-score.

In the case of AACTAACC, the binding signal is -0.198 E-score.

Regarding ACAGCCAA, the binding signal was -0.0295 E-score.

AATATCTA had a binding signal of 0.402 E-score.

Take AGTATATA: the binding signal is 0.227 E-score.

The sequence AAACTGAA had a binding signal of 0.0759 E-score.

Consider AGAACCAC, for which the binding signal is -0.0682 E-score.

In the case of ATCTCGCA, the binding signal was 0.324 E-score.

Turning to AGGTTCAA, the binding signal was -0.0851 E-score.

Regarding ATGAGGCG, the binding signal is -0.153 E-score.

In the case of ACCAGAAA, the binding signal was 0.145 E-score.

As for AGTCTCGA, the binding signal turned out to be 0.0436 E-score.

On to ATTAAGAA, for which the binding signal came out at 0.201 E-score.

On to AGGTTCTG, for which the binding signal is -0.104 E-score.

With AGATAGGG, the binding signal was -0.139 E-score.

On to CACCAGGC, for which the binding signal was -0.188 E-score.

With CACCCGTA, the binding signal was -0.118 E-score.

AGTTCAGC: the binding signal is -0.106 E-score.

As for AGGTCACA, the binding signal was -0.223 E-score.

With AAAAGGCG, the binding signal is -0.0954 E-score.

Consider AGAAGGCA, for which the binding signal was -0.179 E-score.

On to AGGAGGAC, for which the binding signal was -0.355 E-score.

In the case of CAAAGTTA, the binding signal was -0.116 E-score.

Turning to CACCTCAA, the binding signal was -0.0678 E-score.

Take ATAGCCAA: the binding signal was -0.0377 E-score.

Take AGTGCTCC: the binding signal is -0.198 E-score.

Consider AAAGGGCA, for which the binding signal is -0.0723 E-score.

For AACTCACA, the binding signal is -0.0492 E-score.

For ATCATTAG, the binding signal is 0.0988 E-score.

Take CAGACCAC: the binding signal was -0.299 E-score.

Take AAGTGTGG: the binding signal was -0.00372 E-score.

For the sequence AGAGCTAG, the binding signal is -0.0258 E-score.

In the case of AAAGGCTG, the binding signal was -0.217 E-score.

As to AGCACGCG, the binding signal is -0.00665 E-score.

For ACCTACTA, the binding signal is -0.136 E-score.

Turning to ACTACCAG, the binding signal was -0.262 E-score.

ATCTTGGG gave a binding signal of 0.216 E-score.

Consider ACCATTAG, for which the binding signal is -0.00593 E-score.

AAGGGTCT: the binding signal is -0.254 E-score.

Turning to AATAGCTA, the binding signal is -0.105 E-score.

With ACTGCACA, the binding signal is -0.0176 E-score.

For AAGACCAT, the binding signal was -0.0733 E-score.

ACCCGATC came in with a binding signal of 0.0202 E-score.

Regarding ACAGACTA, the binding signal turned out to be 0.0905 E-score.

Consider CAGCCGTA, for which the binding signal was -0.0791 E-score.

Consider AGTTATCC, for which the binding signal was -0.0632 E-score.

In the case of AAGCAGGA, the binding signal is -0.122 E-score.

In the case of CAAGGTGG, the binding signal is -0.181 E-score.

With ACACTCAT, the binding signal was -0.0705 E-score.

AGATGCAA registered a binding signal of 0.0749 E-score.

AGATTTAC came in with a binding signal of 0.349 E-score.

For AAGGCATG, the binding signal was -0.144 E-score.

Regarding AATCAGGG, the binding signal turned out to be 0.313 E-score.

ATCATTTG displayed a binding signal of 0.0724 E-score.

As for AATGTAAC, the binding signal is -0.012 E-score.

For ACCGAAAA, the binding signal stood at 0.0713 E-score.

In the case of ATGATTTA, the binding signal was 0.116 E-score.

As for AAATTATC, the binding signal turned out to be 0.108 E-score.

With AGCTACCT, the binding signal is -0.223 E-score.

Regarding CACGCATC, the binding signal was -0.174 E-score.

For ACCCCTCT, the binding signal is -0.194 E-score.

Regarding ATGTCCCG, the binding signal is -0.0596 E-score.

Consider AGGGTCTC, for which the binding signal is -0.263 E-score.

As to AGAGCCAC, the binding signal is -0.204 E-score.

AAAGGGCT: the binding signal was -0.268 E-score.

Turning to AAGGACCC, the binding signal was -0.25 E-score.

ATGTATTC came in with a binding signal of 0.15 E-score.

For ACATACGA, the binding signal was -0.0127 E-score.

CAAGCATC: the binding signal was -0.112 E-score.

Sequence ATTTAGGG gave a binding signal of 0.0859 E-score.

Regarding AGGCATAT, the binding signal was found to be 0.0639 E-score.

Consider ATGTAACA, for which the binding signal turned out to be 0.0913 E-score.

Sequence ACATCACT gave a binding signal of 0.00108 E-score.

Consider ACCCGCTC, for which the binding signal is -0.233 E-score.

ACAGAGAA: the binding signal was determined as 0.189 E-score.

AGGGTTGC: the binding signal is -0.183 E-score.

On to ACCTTGAG, for which the binding signal is -0.16 E-score.

As to AACGACTC, the binding signal came out at 0.0785 E-score.

Take ACATTAAG: the binding signal worked out at 0.0195 E-score.

In the case of AACTGAAG, the binding signal is -0.102 E-score.

In turn, ATTATCGG showed a binding signal of 0.119 E-score.

For the sequence AGAAATTC, the binding signal amounted to 0.0929 E-score.

On to ACAGACGA, for which the binding signal is -0.0826 E-score.

AATGTGGA registered a binding signal of 0.0848 E-score.

Take ATAGACAA: the binding signal was 0.0842 E-score.

As to ATAATCGA, the binding signal amounted to 0.216 E-score.

Regarding AAACCACA, the binding signal came out at 0.0158 E-score.

With ACTTAGAG, the binding signal was -0.158 E-score.

AACTAATA had a binding signal of 0.0382 E-score.

In the case of ATAGAGTG, the binding signal is -0.0258 E-score.

With AGCGTCAC, the binding signal was -0.139 E-score.

The sequence ATGTTACA came in with a binding signal of 0.0988 E-score.

Turning to ATAGGATC, the binding signal was found to be 0.255 E-score.

Take AGAACTAG: the binding signal is -0.0587 E-score.

On to ATCCTAAT, for which the binding signal was determined as 0.248 E-score.

AATTAGTC: the binding signal was -0.0112 E-score.

As to AGACAGTA, the binding signal was 0.119 E-score.

On to CAACTTAA, for which the binding signal is -0.112 E-score.

AGGTAGGA: the binding signal was -0.0115 E-score.

With AGACACAT, the binding signal is -0.0608 E-score.

In the case of AGGTTGGA, the binding signal is -0.0311 E-score.

Regarding ACCGTCGG, the binding signal is -0.142 E-score.

For AAGCGGTG, the binding signal was -0.151 E-score.

As to AAGTCTAT, the binding signal was -0.0451 E-score.

The sequence ATGTAATG displayed a binding signal of 0.0627 E-score.

Turning to AAGAGCTT, the binding signal was -0.14 E-score.

Consider ATGTCTAC, for which the binding signal is -0.0959 E-score.

The sequence AAGGAAAA came in with a binding signal of 0.0861 E-score.

ACAAATAA: the binding signal is 0.23 E-score.

With ATTGTGAC, the binding signal amounted to 0.192 E-score.

On to ACCTCTAC, for which the binding signal was -0.227 E-score.

Regarding ACCACTCT, the binding signal is -0.103 E-score.

For AGCCCAGG, the binding signal was -0.332 E-score.

As to CAAAAGGC, the binding signal was -0.302 E-score.

With AGCGCGCG, the binding signal was -0.0377 E-score.

Consider AGCACCCA, for which the binding signal was -0.126 E-score.

AGGCTATG: the binding signal is -0.067 E-score.

Turning to ACGAAACT, the binding signal amounted to 0.0808 E-score.

Sequence AAATACTG returned a binding signal of 0.183 E-score.

With ATAGGCAC, the binding signal was -0.0932 E-score.

Regarding AGTCGTAC, the binding signal is -0.159 E-score.

Turning to ACCGGTGC, the binding signal is -0.201 E-score.

AATATGGT gave a binding signal of 0.17 E-score.

As for AGTATGTA, the binding signal amounted to 0.00207 E-score.

Consider ACCGGAAT, for which the binding signal was determined as 0.243 E-score.

On to AGAGTCGA, for which the binding signal was 0.0673 E-score.

Consider ACTGTGAC, for which the binding signal is -0.081 E-score.

For ACGCCGTA, the binding signal was -0.186 E-score.

For the sequence ACAAGACG, the binding signal was -0.2 E-score.

Sequence ATATGCAT gave a binding signal of 0.219 E-score.

With ATGAGAGC, the binding signal was -0.128 E-score.

Consider AGAGGGGG, for which the binding signal is -0.275 E-score.

As to ACCATCGG, the binding signal was -0.28 E-score.

Consider ACTACGAT, for which the binding signal was determined as 0.19 E-score.

For the sequence ACAAGAGC, the binding signal is -0.099 E-score.

With CACTGTTA, the binding signal turned out to be 0.0362 E-score.

As for AGTCATCC, the binding signal was -0.195 E-score.

For the sequence AGCTTAAA, the binding signal is -0.0158 E-score.

As for ACAACACC, the binding signal was -0.00204 E-score.

For CAGCATTA, the binding signal stood at 0.0293 E-score.

For the sequence ACGTTACT, the binding signal is -0.065 E-score.

As for AAAGTGTC, the binding signal was -0.000473 E-score.

For ATTTCACC, the binding signal came out at 0.214 E-score.

Sequence AAGAGATG showed a binding signal of 0.0111 E-score.

As for ACTATTGG, the binding signal is -0.151 E-score.

Sequence CACCAATA showed a binding signal of 0.0686 E-score.

On to ATAATCTA, for which the binding signal is 0.334 E-score.

Regarding AACGTTCT, the binding signal was -0.139 E-score.

Consider AACGGGCT, for which the binding signal was -0.222 E-score.

As to AGCTTCAA, the binding signal is -0.251 E-score.

Turning to ACCTTGCA, the binding signal was -0.0624 E-score.

As to AGTCTATA, the binding signal was -0.0952 E-score.

ACTTAGAT returned a binding signal of 0.257 E-score.

Take ACAGGTAC: the binding signal is -0.0204 E-score.
